The record followed here is PubChem BioAssay AID1963576 (National Center for Advancing Translational Sciences (NCATS), 2024).

The whole screen tested about 46,000 compounds, of which about 60 (0.1%) were called active. Roughly 3% stayed inconclusive and do not appear here. Calls come from the whole dose curve; as a rule, active = well fitted inhibition curve with a large enough effect; inconclusive = small, poorly fitted or top-dose-only effect; inactive = no such curve, though single readings can be large or run the other way. This is one part of the list.

A short description of the assay: Primary qHTS assay for Inhibitors of ovarian cancer metastasis using an organotypic tumor microenvironment (TME) model.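 For activity change, negative = inhibition: plate controls were DMSO wells for no effect and tomatine positive control wells for full effect.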 Note: nearly all actives have a fitted effect of over 65% in size. The note with it: SKOV3ip1-GFP adhesion/invasion on 3D omental model, fluorescence; series mostly up to 45.8 µM; activity change, negative = inhibition: at the top concentration. The gist of the method:
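A 3D layer of primary human omental fibroblasts, mesothelial cells, fibronectin and collagen I, grown 48 hr, received SKOV3ip1-GFP cells in serum-free medium plus compounds at 0.36-46 umol/L. After 2 hr RT and 16 hr 37 C, fixed adherent GFP cells were counted; normalized to DMSO and tomatine.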
On the technique in general: In qHTS, concentration-response curves come from the screen itself.
As to `Cc1ccc2c(c1)-c1c(cnc3cc(-c4ccccc4)nn13)CO2`, the call was inactive.
For the molecule `CCOC(=O)c1cccnc1SCC(=O)Nc1ccc(C)cc1C`, the “activity change, negative = inhibition” value was inactive: 9.34%.
The same measure, in the same setting: with `COC(=O)N[C@H](C(=O)N1CCC[C@@H]1c1ncc(-c2ccc(-c3ccc(-c4cnc([C@@H]5CCCN5C(=O)[C@@H](NC(=O)OC)C(C)C)[nH]4)cc3)cc2)[nH]1)C(C)C` the figure was inactive: -7.89%.
With `CCN(Cc1ccccc1)C(=O)CN(c1ccc(OC)cc1)S(=O)(=O)c1c(C)nn(C)c1C`, the “activity change, negative = inhibition” value is inactive: 7.25%.
The same measure, in the same setting: next, `CCc1ccc(NC(=O)c2ccc3[nH]c(C)c(C)c3c2)cc1`: inactive: 4.13%.
`Cc1ccc(C)c(Cn2cc(S(=O)(=O)c3ccc(Cl)cc3)c(=O)c3cc(F)ccc32)c1`: the “activity change, negative = inhibition” value is inactive: 1.03%.
The same measure, in the same setting: next, `CCOc1ccc(NC(=O)Cn2c(=O)n(-c3cccc(OC)c3)c(=O)c3c4c(sc32)CCCC4)cc1`: inactive: 0.175%.
For the molecule `CCCCN(CCCC)CCNC(=O)c1cn(CC)c2ccc(S(=O)(=O)N(C)C3CCCCC3)cc2c1=O`, the molecule was classed as inactive.
Take `COc1ccc(Cl)cc1NS(=O)(=O)c1ccc2c(c1)NC(=O)CC(=O)N2`: the “activity change, negative = inhibition” value was inactive: 2.49%.
With `CCSc1ncc(Cl)c(C(=O)Nc2ccc(S(=O)(=O)N3CCCCC3)cc2)n1`, the “activity change, negative = inhibition” value was inactive: -11.2%.
As to `O=C(CCS(=O)(=O)c1cccs1)Nc1ccc(C(=O)Nc2ccccc2F)cc1`, the “activity change, negative = inhibition” value was inactive: 1.88%.
As to `COCCNC(=O)Cn1c(=O)n(CCCCCC(=O)NCc2ccc3c(c2)OCO3)c(=O)c2sccc21`, the “activity change, negative = inhibition” value was inactive: -4.75%.
On the same count and under the same terms, next, `CCOCCCNc1ncnc2c1cnn2-c1ccc(C)c(C)c1`: inactive: -30.9%.
In the case of `Cc1cc2c(cc1S(=O)(=O)N1CCCCC1)OCC(=O)N2`, the “activity change, negative = inhibition” value is inactive: 10.4%.
Consider `Cc1ccccc1NC(=O)CSc1nc2c(c(=O)n(C)c(=O)n2C)n1Cc1ccccc1F`, for which the molecule was called inactive.
Still for that read-out and setting: next, `CC(=O)N1CCc2c(sc3c2c(=O)n(CCc2ccccc2)c(=O)n3Cc2ccc(Cl)cc2)C1`: “inactive”.
Regarding `CCOC(=O)C1CCN(C(=O)Cn2c(=O)oc3cc(S(=O)(=O)N4CCC(C)CC4)ccc32)CC1`, the “activity change, negative = inhibition” value is inactive: 11.3%.
Consider `Cc1ccc(-c2c(C)n3c4c(=O)n(C)c(=O)n(C)c4nc3n2CCO)cc1`, for which the “activity change, negative = inhibition” value was inactive: 3.67%.
Take `CC(C)(C)c1ccc(S(=O)(=O)N2CCN(Cc3noc(CCC(=O)N4CCCCC4)n3)CC2)cc1`: the “activity change, negative = inhibition” value was inactive: -5.89%.
On to `CCNc1nc(OC)nc(Oc2ccc(=O)[nH]n2)n1`, for which the “activity change, negative = inhibition” value was inactive: 17.6%.
Regarding `O=C(CN1C(=O)CCc2cc(S(=O)(=O)N3CCOCC3)ccc21)NCc1ccccc1`, the outcome was inactive.
For the molecule `COc1ccc(-c2nc(CSc3nncn4c3cc3sccc34)c(C)o2)cc1OC`, the “activity change, negative = inhibition” value was inactive: -0.983%.
On to `Cc1ccc(-c2nc3sc(CCNC(=O)c4ccc(C)c(C)c4)c(C)n3n2)cc1`, for which the “activity change, negative = inhibition” value is inactive: -17.5%.
Regarding `CCc1ccccc1NC(=O)N(C)CCc1c(C)nn(C)c1C`, the result was inactive.
Consider `COc1ccc(C(=O)n2nc(-c3ccco3)nc2NCc2cccs2)cc1OC`, for which the “activity change, negative = inhibition” value was inactive: -6.17%.
With `CCc1ccc(NC(=O)CSC2=Nc3ccccc3C3=NC(CCC(=O)NCc4ccco4)C(=O)N23)cc1` (stereo unspecified), the “activity change, negative = inhibition” value was inactive: -0.477%.
`Cc1cc(C)cc(S(=O)(=O)c2cn(C)c3cc(N4CCCC4)c(F)cc3c2=O)c1`: the molecule was classed as inactive.
As to `CCCNC(=O)c1ccc2nc(CCc3ccccc3)oc2c1`, the molecule was classed as inactive.
As to `COc1ccc(-c2nnc(SCC(=O)Nc3ccc(C(C)C)cc3)nc2-c2ccc(OC)c(OC)c2)cc1OC`, the “activity change, negative = inhibition” value is inactive: -6.41%.
As to `COc1ccc(NC(=O)CC2C(=O)N(c3cccc(C)c3)C(=O)N2C2CCCCC2)cc1` (stereo unspecified), the “activity change, negative = inhibition” value is inactive: 1.99%.
The same measure, in the same setting: next, `CC(=O)c1cccc(NC(=O)c2cc(-c3ccc(Cl)s3)nc3ccccc23)c1`: inactive: 1.93%.
The same measure, in the same setting: with `CCOc1ccccc1CNS(=O)(=O)c1ccc2[nH]c(=O)ccc2c1` the figure was inactive: -13.3%; with `CC(C)Cc1ccc(S(=O)(=O)Nc2cc3c(cc2N2CCOCC2)n(C)c(=O)c(=O)n3C)cc1`, inactive: -6.58%.
In the case of `Cc1ccc(C)c(CN2C(=O)N(c3cc(Cl)ccc3C)S(=O)(=O)c3ccccc32)c1`, the molecule was called inactive.
Take `Cc1ccc(C)c(Cn2c(-c3cccs3)nc3ccccc32)c1`: the “activity change, negative = inhibition” value is inactive: -0.0844%.
Still for that read-out and setting: next, `COc1cccc(C(=O)Nc2ccc(-c3cc(C(F)(F)F)nn3-c3ccccc3)cc2)c1`: inactive: -5.66%.
On the same count and under the same terms, with `CCC(C)(Oc1ccc(C2(c3ccc(OC(C)(CC)C(=O)O)cc3)CCCCC2)cc1)C(=O)O` (stereo unspecified) the figure was inactive: -18.2%.
As to `CC(C)c1ccc(S(=O)(=O)c2nnn3c2nc(N2CCCCC2)c2sccc23)cc1`, the “activity change, negative = inhibition” value was inactive: -0.725%.
`Cc1cccc(NC(=O)CCCCCn2c(=O)[nH]c3ccsc3c2=O)c1`: the molecule was called inactive.
Same read-out and setting: next, `CCOc1ccc(CCNC(=O)CCCn2nc(C)c3sc4ccccc4c3c2=O)cc1`: “inactive”.
As to `COc1cccc(Nc2sc(C(=O)c3ccc(F)cc3)c(N)c2C(=O)NCc2ccc(Cl)cc2)c1`, the “activity change, negative = inhibition” value was inactive: 3.94%.
In the case of `CCN(CCCNC(=O)CN1N=C(c2ccc(OC)cc2)CCC1=O)c1cccc(C)c1`, the “activity change, negative = inhibition” value is inactive: 21.8%.
Same read-out and setting: next, `COc1ccc(NC(=O)CSc2nnc(NC(=O)Nc3ccc(OC)cc3)s2)cc1`: inactive: -21.5%.
For `CCOC(=O)C1CCCN(C(=O)c2cc3c(=O)[nH]c4ccc(C)cc4c3s2)C1` (stereo unspecified), the molecule was called inactive.
Consider `CCC(C(=O)Nc1c(C)cc(C)cc1C)n1c(=O)c(-c2ccccc2NC(C)=O)nc2ccccc21` (stereo unspecified), for which the “activity change, negative = inhibition” value was inactive: 2.45%.
`CN(Cc1ccccc1)S(=O)(=O)c1cc(Br)cc2c1N(C(=O)C1CC1)CC2`: the call was inactive.
